Reference: PubChem BioAssay
This list was built around the results that the source calls inconclusive (neither active nor inactive); the mix of calls is not that of the screen. Activity calls are given as the source filed them.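 Rule for the calls: active = thallium entry rate above the same plate's blocked-transporter control wells by more than 3 SD; inconclusive = the two repeat wells disagree; inactive = the rest.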

Experiment: FluoZin2 fluorescence counter-screen of MLSMR hits on KCC2-expressing cells (AID 1714);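 note: raw slope of fluorescence over initial fluorescence between 10 and 20 s after thallium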
Conditions: HEK293-KCC2 + bumetanide/ouabain, at 10 µM, stronger effect = higher value
In short: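 Test system – KCC2-expressing HEK cells · Medium – HBSS-HEPES with ouabain and bumetanide · Reagent – thallium stimulus · Dosing – 10 µM single dose · Times – 48 min dye loading · Technique – kinetic FluoZin2 fluorescence, ex 480/em 540 nm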

| Structure (SMILES) | normalized thallium flux |
| --- | --- |
| COc1ccc(C2CCCN2C(=O)Nc2ccc(Cl)cc2)cc1OC (centres undefined) | inactive: 0.0049 |
| COc1cccc(-c2nnc(NC(=O)c3ccc4ncsc4c3)o2)c1 | active: 0.0383 |
| Cc1ccnc(N2CCN(C(=O)CSc3nc4ccccc4nc3N3CCC(C)CC3)CC2)c1 | active: 0.00873 |
| Cc1cccc(Nc2n[nH]c(=S)s2)c1C | inactive: 0.00679 |
| Cc1cc(NC(=O)c2ccc(S(=O)(=O)N3CCCC3)cc2)nc2c1c(=O)oc1ccccc12 | inactive: 0.00698 |
| N#C/C(=C(/O)COc1ccc(Cl)cc1)c1nc2ccccc2s1 | inconclusive: 0.00568 |
| Cc1ccc(C2=NNC(c3cccc(F)c3)S2)cc1 (centres undefined) | inconclusive: 0.00523 |
| CCC(=Nc1ccc(Cc2ccncc2)cc1)c1c(O)n(C)c(=O)n(C)c1=O | inconclusive: 0.0053 |
| COc1ccc(C(=O)Nc2cccc(/C=C(\CCC(=O)O)c3nc4ccccc4s3)c2)cc1 | inconclusive: 0.00565 |
